From PubChem BioAssay AID488969 (Vanderbilt High Throughput Screening Facility, 2010)
In all, about 110,000 compounds were measured (“z-score”: median about -0.1, highest 2% from about 2 on). The list shows a part of the results. The source made the active and inactive calls.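 How the source made its calls: active means z-score in the third read window above 3 or below -3; inactive means the rest.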

Target: Metabotropic glutamate receptor 8 (Rattus norvegicus) (UniProt P70579)
Assay: rat mGluR8 modulators via GIRK flux, primary screen, cell-based, thallium flux, HTS (AID 488969)
Settings: HEK293 rat mGluR8, GIRK (G protein-gated inwardly rectifying potassium channel) thallium flux, FluoZin2; at 10 µM; stronger effect = higher value; submaximal glutamate (EC20) added with thallium

Chain of UniProt P70579 (P70579 whole entry, looked up): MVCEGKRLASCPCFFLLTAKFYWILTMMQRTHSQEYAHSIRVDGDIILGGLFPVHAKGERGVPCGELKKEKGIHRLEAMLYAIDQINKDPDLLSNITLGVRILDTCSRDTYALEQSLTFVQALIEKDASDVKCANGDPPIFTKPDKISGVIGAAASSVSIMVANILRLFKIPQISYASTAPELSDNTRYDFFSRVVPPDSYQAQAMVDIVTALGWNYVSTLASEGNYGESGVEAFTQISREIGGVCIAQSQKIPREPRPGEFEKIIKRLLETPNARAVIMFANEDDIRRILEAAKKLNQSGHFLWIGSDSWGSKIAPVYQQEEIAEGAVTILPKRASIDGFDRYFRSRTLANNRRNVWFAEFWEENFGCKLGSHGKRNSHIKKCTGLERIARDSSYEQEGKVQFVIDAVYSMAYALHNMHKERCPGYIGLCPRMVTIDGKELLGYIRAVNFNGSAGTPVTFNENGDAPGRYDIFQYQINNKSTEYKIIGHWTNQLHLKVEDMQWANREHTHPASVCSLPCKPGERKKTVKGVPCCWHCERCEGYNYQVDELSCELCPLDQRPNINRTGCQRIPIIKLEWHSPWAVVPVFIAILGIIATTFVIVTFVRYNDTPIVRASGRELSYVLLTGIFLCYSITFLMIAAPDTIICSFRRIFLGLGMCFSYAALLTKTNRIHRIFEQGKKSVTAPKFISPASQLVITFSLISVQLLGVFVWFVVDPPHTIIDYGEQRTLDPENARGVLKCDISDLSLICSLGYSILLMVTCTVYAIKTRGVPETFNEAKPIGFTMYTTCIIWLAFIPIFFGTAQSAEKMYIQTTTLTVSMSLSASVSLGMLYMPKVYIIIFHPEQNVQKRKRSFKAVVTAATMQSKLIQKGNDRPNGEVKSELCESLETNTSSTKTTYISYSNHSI

Row | Compound | z-score
1 | CCOc1cc(S(=O)(=O)Nc2ccccc2CC)ccc1Cl | 0.122
2 | O=C1NC(=O)C(CC(=O)N(c2ccccc2)C2(C(=O)NC3CCCC3)CCCCC2)N1 (stereo not given) | -0.564
3 | COc1cc(C)c(C(C)C)cc1S(=O)(=O)n1ccnc1 | -0.0729
4 | Cc1oc2c(C)c(O)ccc2c(=O)c1N1C(=O)c2ccccc2C1=O | -0.166
5 | O=[N+]([O-])C1=CC=C2C(=NC3(CCCCC3)N2O)C1=NCCO | -0.049
6 | CC(=O)Oc1ccc(-c2cccc(C(=O)O)c2)cc1 | -0.607
7 | O=C(C1CCN(S(=O)(=O)c2ccc3ccccc3c2)CC1)N1CCN(c2ncccn2)CC1 | -0.316
8 | COc1ccc(CC(=O)NNc2ncnc3c2cnn3-c2ccc(C)cc2)cc1OC | -0.157
9 | O=C(CCNS(=O)(=O)c1cccc2nsnc12)N1CCc2ccccc21 | 0.209
10 | O=C(NC1CCCC1)C(c1cccs1)N(Cc1ccco1)C(=O)Cn1nnc(-c2cccs2)n1 (stereo not given) | 0.388
11 | COc1ccc(NC(=O)C2CCCN(S(=O)(=O)c3c(C)[nH]c(=O)[nH]c3=O)C2)cc1 (stereo not given) | -0.193
12 | CNc1ccc(S(=O)(=O)NCC(=O)OCC(=O)Nc2cccc(Cl)c2Cl)cc1[N+](=O)[O-] | -0.201
13 | CC(C)Cc1[nH]c(=O)c(C#N)c2c1COC(C)(C)C2 | 0.0865
14 | O=C(CSc1ncn[nH]1)Nc1ccccc1Sc1ccc(Cl)cc1 | -0.254
15 | C/C(=N\NC(=S)Nc1ccc(C)c(C)c1)c1ccc(N2CCOCC2)cc1 | 0.458
16 | CCC1(C(=O)OC)NC(c2cccc(F)c2)C2C(=O)N(C)C(=O)C21 (stereo not given) | -0.0658
17 | CCOc1ccc2[nH]c(=O)c(CN(CC3COCCO3)C(=O)C3CC3)cc2c1 (stereo not given) | -0.278
18 | Cc1cccc(OCC(O)Cn2c(=N)n(CCN3CCOCC3)c3ccccc32)c1 (stereo not given) | 1.06
19 | c1ccc2c(c1)nc(CN1CCOCC1)n1c3ccccc3nc21 | 0.336
20 | Fc1ccc(Oc2nccc(-c3ccc(Cl)cc3)n2)cc1 | -0.0536
21 | CCOC(=O)/C(C#N)=C/c1ccc(OC(=O)c2ccccn2)cc1 | -0.24
22 | O=c1[nH]c2sc3c(c2c(=O)n1Cc1ccccc1)CCC3 | -0.117

Row | Compound | z-score
23 | O=C(c1cccc(F)c1)N1CCN(c2cccc(C(F)(F)F)c2)CC1 | 0.657
24 | Cc1cccc(NC(=O)CSc2nc3ccc(N4C(=O)c5ccccc5C4=O)cc3s2)c1C | 0.0104
25 | Cc1c(C(=O)O)cccc1-c1ccc(C=O)o1 | 0.12
26 | Cc1cc(COc2ccccc2OCc2cc(C)no2)on1 | 0.355
27 | CCN(C1CCS(=O)(=O)C1)S(=O)(=O)c1cccs1 (stereo not given) | 0.297
28 | CCCNC(=S)Nc1ccc(Br)cc1 | 0.593
29 | CCCn1c(SCc2ccon2)nc2ccccc2c1=O | 0.14
30 | COCCn1c(SCC(=O)NC(=O)NCc2ccccc2)nc2ccccc21 | 1.78
31 | Oc1ccc(N=Nc2n[nH]c(-c3ccc(Br)cc3)n2)cc1 | 0.0625
32 | COC(=O)c1ccc(C)c(NC(=O)Cn2cnc3ccccc3c2=O)c1 | 0.133
33 | COc1ccc(-c2csc(Cc3nnc4n3CCCCC4)n2)cc1 | 0.205
34 | COCCCNC(=O)c1cc(C)nc2ccc(F)cc12 | -0.192
35 | Cc1ccccc1C(=O)N1CCC(C(=O)Nc2ccc(F)cc2)CC1 | 0.221
36 | CC1C(O)=C(c2nc3ccccc3[nH]2)C(=N)N1c1ccccc1 (stereo not given) | -0.532
37 | CC1CC(Nc2ccccc2)=CC(=O)O1 (stereo not given) | -0.0738
38 | CCOC(=O)c1ccc(N/C(=N/S(=O)(=O)c2ccccc2)c2ccccc2)cc1 | -0.451
39 | CCCCn1c(NCc2ccc3c(c2)OCO3)nc2ccccc21 | -1.26
40 | OCC1CCCN(c2nc(CN3CCCCC3)nc3scc(-c4ccccc4)c23)C1 (stereo not given) | 0.295
41 | CCCCCC1CCC(c2ccc(C(N)=O)cc2)CC1 (stereo not given) | -0.00317
42 | COCCCn1c(SCc2cccc(OC)c2)nc2cc(OC)c(OC)cc2c1=N | -0.676
43 | CCCC(=O)Nc1c(-c2cccs2)c(=O)c2ccccc2n1C | -0.175
44 | CC1=C(C)C(=O)NC(Nc2nc(C)c3cc(C)cc(C)c3n2)N1 (stereo not given) | -0.695

Row | Compound | z-score
45 | C=C(C)CSc1nnc([C@@H]2CCCN2C(=O)OC(C)(C)C)o1 | 0.557
46 | COCCCNC(=O)c1ccc(C(=O)NCCCOC)cc1 | 0.139
47 | CCOc1ccc(NC(=O)C2=C(C)C(=O)OC23CCC(C)CC3)cc1 (stereo not given) | 0.156
48 | COc1ccc(C2CC(=O)C3=C(C2)Nc2ccccc2NC3c2coc3ccccc3c2=O)cc1OC (stereo not given) | -0.442
49 | O=C(Nc1ccc(OCC(F)(F)C(F)F)c(C(F)(F)F)c1)c1ccccc1O | -0.111
50 | Cc1cc2nnc(SC3CCCCN(C(=O)c4ccc(F)cc4)C3=O)n2c2ccccc12 (stereo not given) | -1.06
51 | CCCCOc1ccc(Cl)cc1CSc1nnc(CC)n1N | -0.694
52 | O=C(CSCc1nc2ccccc2[nH]1)N1CCN(c2cccc(Cl)c2)CC1 | 0.0357
53 | CCCC(=O)Nc1nc(-c2ccc3c(c2)CCN3S(C)(=O)=O)cs1 | -0.329
54 | Cc1c(C(=O)NCCSCc2ccc(Cl)cc2Cl)cccc1[N+](=O)[O-] | -0.37
55 | CCOCCCNC(=O)c1ccccc1SC | 0.03
56 | COC(=O)C(C)n1cnc2c(cnn2-c2ccc(Cl)cc2)c1=O (stereo not given) | 0.0795
57 | O=C(Cc1nc(=O)c2ccccc2s1)Nc1ccccc1 | -0.368
58 | CC1CCC(C(=O)NC(C(=O)N2CCc3ccccc3C2)C(C)C)CC1 (stereo not given) | -0.269
59 | CNC(=S)N/N=C/c1cn(Cc2ccc(F)cc2)c2ccccc12 | 0.0629
60 | COc1ccc(CCCC(=O)NC2CCCCC2C)c(C)c1 (stereo not given) | 0.0192
61 | Nc1c(Cl)ncnc1N1CCOCC1 | -0.00864
62 | CSc1ccccc1NC(=O)CSCc1ccccc1Br | -0.153
63 | Cc1cccc2c1CC(C)(C)N=C2C1=C(O)CC(C)(C)CC1=O | 0.717
64 | COc1ccccc1N1CCN(C2=NS(=O)(=O)c3ccccc32)CC1 | 0.155
65 | Nc1ccc(SC(F)(F)F)cc1C(=O)c1ccccc1 | -0.00154
66 | COc1ccc(NC(=O)CN(C)CC(=O)Nc2ccccc2SC)cc1Cl | -0.43

Row | Compound | z-score
67 | Cc1ccc(S(=O)(=O)Nc2cc(-c3nn(C)c(=O)c4ccccc34)ccc2N2CCOCC2)cc1 | -0.419
68 | CCOC(=O)CSc1nc2c(sc(=S)n2-c2ccccc2OC)c(=O)n1Cc1ccco1 | -1.88
69 | O=C(c1ccc(-n2cnnn2)cc1)N1CCOCC1 | 0.54
70 | CCOc1cccc(NC(=O)Cn2nc(-c3ccc4c(c3)OCCO4)ccc2=O)c1 | -1.19
71 | CCCN1C(=O)c2cc(C(=O)NC3CCCC3)ccc2C1O (stereo not given) | -0.238
72 | Clc1ccccc1COc1ccc(/C=N/n2cnnc2)cc1 | 0.0759
73 | Cc1cccc(C(=O)N2CCN(c3ccccn3)CC2)c1 | -0.2
74 | CCn1c(CNC(=O)COc2ccc(C(C)C)cc2)nnc1SCC(=O)Nc1ccccc1C(C)C | -0.367
75 | COc1ccc(NS(=O)(=O)c2cccc(NC(=O)C34CCC(CC3)C4)c2)cc1 | -0.0275
76 | Cc1cc(C)nc(NS(=O)(=O)c2ccc(N/C=C3\CCCC3=O)cc2)n1 | -0.331
77 | C=CCn1c(=NC(=O)C2CC2)sc2cc(NC(C)=O)ccc21 | -0.407
78 | O=C(c1ccccc1)c1cc2ccc(O)cc2oc1=O | -0.849
79 | Cc1ccc(-n2nnnc2Sc2nc([N+](=O)[O-])nn2C)cc1C | -0.186
80 | CCOC1(OCC)N=C(N)C2(C#N)C(c3ccc(NC(C)=O)cc3)C12C#N (stereo not given) | 0.154
81 | CN(C)CCNCc1ccccc1OC1CCCC1 | -0.633
82 | O=C(COc1cccc(F)c1)N[C@@H](Cc1ccccc1)c1nc2ccccc2[nH]1 | -0.645
83 | Cc1sc2nc(SCC(=O)Nc3c(C)n(C)n(-c4ccccc4)c3=O)n(C)c(=O)c2c1C | -2.68
84 | Cc1c(C(=O)NC(=S)Nc2ccccc2N2CCCC2)cccc1[N+](=O)[O-] | active: 3.83
85 | COc1ccc(NC(=O)CCC(=O)OC(C(=O)c2ccccc2)c2ccccc2)cc1 (stereo not given) | -0.149
86 | Cc1cc(C)n(CCc2nc(-c3cccs3)cs2)n1 | 0.245
87 | C=CCNC(=O)/C(C#N)=C/c1cn(-c2ccccc2)nc1-c1ccc(OC)c([N+](=O)[O-])c1 | -0.121
88 | CN(CCC(=O)Nc1ccc(Br)cc1)Cc1ccccc1 | 1.33

Row | Compound | z-score
89 | COCCCNC(=O)CCN1C(=O)COc2ccccc21 | 0.489
90 | CC(NC(=O)c1ccc(CS(=O)(=O)c2cccc(C(F)(F)F)c2)o1)c1ccc2c(c1)OCCO2 (stereo not given) | -1.17
91 | O=C(NC(=S)N(CCCCO)C1CCCCC1)c1sc2ccccc2c1Cl | active: 9.88
92 | COc1ccccc1NS(=O)(=O)c1cc(NC(=S)Nc2cc(C)cc(C)c2)ccc1Cl | 1.31
93 | COc1cccc(C2CC(=O)N3CN(c4ccccc4F)CSC3=C2C#N)c1 (stereo not given) | -0.499
94 | O=C(Nc1cccc2cccnc12)c1ccc2c(c1)OCCO2 | -0.538
95 | NS(=O)(=O)c1ccc(NC(=S)Nc2nn(Cc3ccc(Cl)cc3Cl)cc2Cl)cc1 | -0.149
96 | COc1ccc(NC2CS(=O)(=O)CC2NCc2ccccc2)cc1 (stereo not given) | 0.261
97 | Cc1cccc(/C=N/n2c(-c3ccncc3)n[nH]c2=S)c1 | -0.531
98 | Cc1nn(C)c(Oc2ccc(Cl)cc2)c1C(=O)O | -0.178
99 | COc1cccc(C(=O)OCc2ccccc2C#N)c1O | -0.163
100 | CC1=C(C#N)C(NC(=O)c2ccco2)(C(F)(F)F)C(=O)N1 (stereo not given) | -0.367
101 | O=[n+]1c2c(n([O-])c3cc(F)c(N4CCCC4)cc31)CCCC2 | active: -4.01
102 | Nc1nnnn1/N=C/c1ccccc1OCc1ccc(Cl)cc1 | -0.142
103 | CCN(CC)S(=O)(=O)c1ccc(Cc2ncc(C(F)(F)F)cc2Cl)s1 | 0.166
104 | Fc1ccc(C(c2nnnn2Cc2cccs2)N2CCN(c3ccccc3)CC2)cc1 (stereo not given) | -0.136
105 | C=CCn1c(CCn2c3ccccc3c3ccccc32)n[nH]c1=S | 0.492
106 | COCCCN1C(=O)C(=O)/C(=C(/O)c2ccc3c(c2)OCCO3)C1c1ccc(C(=O)OC)cc1 (stereo not given) | 0.713
107 | COc1cccc(-n2c(CN3CCN(c4ccccc4)CC3)nc3ccc([N+](=O)[O-])cc3c2=O)c1 | -0.00075
108 | COc1ccc(S(=O)(=O)N2CCCC(C(=O)NCc3ccccn3)C2)cc1 (stereo not given) | 0.145
109 | Cn1cc(Br)c(C(=O)NNC(=O)c2ccc(Br)cc2)n1 | 0.0101
110 | CC(Oc1ccc(Cl)cc1Cl)C(=O)NC(=S)N1CCc2ccccc21 (stereo not given) | active: 12.9
